Measurements: PubChem BioAssay AID624417 (National Center for Advancing Translational Sciences (NCATS), 2012)
Hit rate of the full screen: of about 410,000 compounds, about 6,400 (1.6%) were called active. Inconclusive results, whose numbers are uncertain, are shown with a selection of clear calls. Calls follow the shape of the dose curve; as a rule, active = well fitted inhibition curve with a large enough effect; inconclusive = small, poorly fitted or top-dose-only effect; inactive = no such curve, though single readings can be large or run the other way. No potency is given beside an inconclusive call; the fits are too rough.

Molecular target: Glucagon-like peptide 1 receptor (Homo sapiens) (UniProt P43220)
Sequence of UniProt P43220 (P43220 whole entry, looked up): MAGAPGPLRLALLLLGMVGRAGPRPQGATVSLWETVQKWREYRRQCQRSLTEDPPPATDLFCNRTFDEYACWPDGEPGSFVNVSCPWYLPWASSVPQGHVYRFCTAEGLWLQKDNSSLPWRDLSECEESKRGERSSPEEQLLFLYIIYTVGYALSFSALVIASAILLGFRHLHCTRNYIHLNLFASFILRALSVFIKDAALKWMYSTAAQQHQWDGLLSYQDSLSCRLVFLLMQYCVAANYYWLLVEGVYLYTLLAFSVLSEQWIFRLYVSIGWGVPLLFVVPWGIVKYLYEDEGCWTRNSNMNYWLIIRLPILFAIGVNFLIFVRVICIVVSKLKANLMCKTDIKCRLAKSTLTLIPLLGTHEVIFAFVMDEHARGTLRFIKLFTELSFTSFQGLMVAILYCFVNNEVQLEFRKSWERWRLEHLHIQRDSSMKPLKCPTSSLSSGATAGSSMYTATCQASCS
Assay: qHTS of GLP-1 Receptor Inverse Agonists (Inhibition Mode); also: nearly all actives have a fitted effect of over 55% in size
Details: HEK293 GLP-1R CRE-luciferase, luminescence, 24 h; Potency: GLP-1R form is constitutively active unless noted; activity change, negative = inhibition: at 38.3 µM (top of the series) unless noted
In short: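 Assay principle: reduced luminescence from a cAMP-responsive reporter in HEK293 cells co-expressing a constitutively active GLP-1R. Conditions: 24 hr compound incubation, 37 deg C, 5% CO2.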
% is scaled to controls: 0 for no effect and ±100 for the full control effect; potency is read from the fitted curve at half-maximal effect; tags tell the direction and shape of the fitted curve.

SMILES | Potency | activity change, negative = inhibition
Oc1ccc(Cl)cc1Cc1cc(Cl)ccc1O | inconclusive [inhibitor, single point] | –
COC(=O)C1=C(c2cccc(OC)c2OC)C[C@@H]2CC[C@H]1N2C(=O)NCCS(C)=O (stereo partly specified) | – | inactive: 10.2%
CN(C)C1CCc2[nH]c3c(F)cc(F)cc3c2C1 (stereo unspecified) | inconclusive [inhibitor, single point] | –
CCC1CN1P(=O)(Oc1ccc(Cl)cc1)N1CC1CC (stereo unspecified) | inconclusive [inhibitor, single point] | –
CCOC(=O)[C@@H]1[C@H]2COc3ccc(Br)cc3[C@@H]2N2C(=O)N(c3cccc(C)c3)C(=O)[C@]12C | inconclusive [inhibitor, single point] | –
O=C1CC(=O)N(c2cccc(Cl)c2)C(=O)N1 | – | inactive: 3.6%
CSc1ccc(C(=O)C2CCCN(C)C2)cc1 (stereo unspecified) | inconclusive [inhibitor, partial curve, poor fit] | –
Cc1ccccc1-n1nc(C)c2c1NC(=O)CSC2c1ccc(N(C)C)cc1 (stereo unspecified) | inconclusive [inhibitor, single point] | –
CN1[C@@H]2CC[C@H]1CC(OC(=O)C1C=Nc3ccccc31)C2 (stereo partly specified) | inconclusive [inhibitor, single point] | –
COC(=O)C1=C(c2ccc(F)cc2OCc2ccccc2)C[C@@H]2CC[C@H]1N2C(=O)NCc1ccc(OC)cc1 | inconclusive [inhibitor, single point] | –
N=c1sccn1Cc1ccc(Cl)cc1Cl | inconclusive [inhibitor, single point] | –
CC1C2Cc3ccc(O)cc3[C@]1(C)CCN2CCc1ccccc1 (stereo partly specified) | – | inactive: -5.81%
Cc1nc2ccc(Br)cc2c(=O)n1-c1ccc([N+](=O)[O-])c(C(F)(F)F)c1 | inconclusive [inhibitor, single point] | –
COc1ccccc1N1CCN(Cc2c(F)cccc2F)CC1 | – | inactive: -16%
CCOc1ccc(/C=C/c2nc(C#N)c(NCc3ccccc3)o2)cc1 | inconclusive [inhibitor, full curve, poor fit] | –
CC(OC(=O)COc1ccc(Nc2ccccc2)cc1)C(=O)N(C)c1ccccc1 (stereo unspecified) | inconclusive [inhibitor, single point] | –
COc1ccc(-n2c(=O)[nH]c3ccccc3c2=O)c(OC)c1 | – | inactive: 1.3%
CC(NCc1cccc(Cl)c1Cl)C(O)c1ccccc1 (stereo unspecified) | inconclusive [inhibitor, partial curve, poor fit] | –
COc1cc(CN2CC=C(c3ccc(F)cc3)CC2)cc(OC)c1 | inconclusive [inhibitor, partial curve, poor fit] | –
CN(C)S(=O)(=O)c1ccc(C(=O)NCCSc2c(-c3ccccc3)[nH]c3ccccc23)cc1 | inconclusive [inhibitor, partial curve, poor fit] | –
COc1ccc(CC2NCC(O)C2OC(C)=O)cc1 (stereo unspecified) | inconclusive [inhibitor, full curve, poor fit] | –

SMILES | Potency | activity change, negative = inhibition
COc1ccc(-c2nc(CSCC(=O)N3CCC4(CC3)OCCO4)c(C)o2)cc1OC | – | inactive: 23.6%
C1CN(P2(N3CC3)=NP(N3CC3)(N3CC3)=NP(N3CC3)(N3CC3)=N2)CCO1 (stereo unspecified) | inconclusive [inhibitor, full curve] | –
O=c1[nH]c(=S)n(Cc2ccco2)c(O)c1C=NCc1cccs1 | – | inactive: 4.02%
O=C(O)C1C2CCC(O2)C1C(=O)Nc1ccc(Cl)cc1 (stereo unspecified) | inconclusive [inhibitor, single point] | –
Cc1ccc(CN2C(=O)c3ccccc3Sc3ccc(C(=O)N4CCC5(CC4)OCCO5)cc32)cc1 | inconclusive [inhibitor, partial curve] | –
O=C(CCC1CCCN(Cc2cccc3c2OCO3)C1)NCc1ccc(F)c(F)c1 (stereo unspecified) | inconclusive [inhibitor, partial curve, poor fit] | –
Cc1onc(-c2c(Cl)cccc2Cl)c1C(=O)N1C(C)CCCC1C (stereo unspecified) | inconclusive [inhibitor, partial curve] | –
C=C1C(=O)OC2C1CCC(C)C1(O)C=CC(=O)C21C (stereo unspecified) | inconclusive [inhibitor, single point] | –
C[C@H]1COC2=C1C(=O)C(=O)c1c2ccc2c1CCCC2(C)C | inconclusive [inhibitor, single point] | –
O=C(NN=Cc1ccc(N(CCCl)CCCl)cc1Cl)c1cccnc1 | inconclusive [inhibitor, full curve, poor fit] | –
CC(C)(C)C(=O)c1cn(CC(=O)NCc2ccco2)c2ccccc12 | inconclusive [inhibitor, single point] | –
Cc1nc2cc(C(F)(F)F)ccc2n1C1CCN(Cc2nnnn2Cc2cccs2)CC1 | inconclusive [inhibitor, single point] | –
S=C1CN=C(c2ccccc2Cl)c2cc(Cl)ccc2N1 | – | inactive: -18.4%
Cc1ccc(-c2cc(-c3ccccc3)cc(-c3ccccc3)[n+]2-c2ccccc2)cc1 | inconclusive [inhibitor, partial curve, poor fit] | –
COC(=O)C(O)(c1c(C)[nH]c2ccccc12)C(F)(F)F (stereo unspecified) | inconclusive [inhibitor, single point] | –
O=C(Nc1cc(Cl)cc(Cl)c1)N1Cc2ccccc2-n2nncc2C1 | inconclusive [inhibitor, single point] | –
O=C1NCN(c2ccccc2)C12CCN(C(c1ccccc1)c1nnnn1C1CCCC1)CC2 (stereo unspecified) | inconclusive [inhibitor, single point] | –
O=c1c2ccccc2nc(-c2ccccc2)n1-c1ccccc1O | inconclusive [inhibitor, single point] | –
Cc1ccc(C2=NCC(=O)N(CC(=O)N3CCCCC3)c3sc(C)c(C)c32)cc1 | – | inactive: -9.7%
COC1CC(C)C(OC)c2cc(O)cc(c2O)NC(=O)C(C)=CC=CC(C)C(OC(N)=O)C(C)=CC(C)C1OC (stereo unspecified) | inconclusive [inhibitor, single point] | –
